Some of the results follow.
Target: T1, OsWOX13 (Oryza sativa, UniProt Q5QMM3 1-267)
T1 sequence: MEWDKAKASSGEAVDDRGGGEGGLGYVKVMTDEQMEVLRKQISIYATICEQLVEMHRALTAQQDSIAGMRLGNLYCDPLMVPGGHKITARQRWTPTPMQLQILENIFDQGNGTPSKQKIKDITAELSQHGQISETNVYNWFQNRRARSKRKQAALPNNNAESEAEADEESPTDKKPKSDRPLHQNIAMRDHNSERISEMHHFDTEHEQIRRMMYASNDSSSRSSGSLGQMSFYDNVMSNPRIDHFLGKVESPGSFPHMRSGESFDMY
Test: protein-binding microarray (RPBM); PBS, 2% BSA, 51.3 ng/ul salmon testes DNA, 50 uM zinc acetate, 200 nM TF, 25 C, 1 h; high values mean tight binding
Conditions: protein: recombinant; tags: N-terminal polyhistidine and DsRed monomer fusion (pET32a); label: CyDye5-dUTP incorporated in the synthesized complementary strand; 3' TTTTT single-stranded linker to array surface; dsDNA, one strand shown
Outline: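 Transcription factors were made in E. coli BL21-CodonPlus as N-terminal fusions to a polyhistidine tag and DsRed, then purified on Ni–NTA. After primer extension with Cy5-dUTP and blocking with 2% BSA, a custom Agilent array was exposed for 1 h at 25 °C to 200 nM protein in PBS, 2% BSA, salmon testes DNA and 50 µM zinc acetate. Washed arrays were scanned on an Axon 4000B, and the binding signal is per-feature fluorescence intensity in arbitrary units.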

| Sequence | binding signal |
| --- | --- |
| AATTAACCTAATTAGATGGATATATCCATTATCCCAAACACGGAGTCACCTAGTGCAG | 31400 fluorescence intensity (a.u.) |
| GCGAATTAGCAATCTCTTAACCTGGCAGCCATATCGCCCGCGGAGTCACCTAGTGCAG | 8850 fluorescence intensity (a.u.) |
| CATAAATAAATTAGTTCCCGGCTCAGAATAAATCCAGTCTCGGAGTCACCTAGTGCAG | 13700 fluorescence intensity (a.u.) |
| AAATTAAAATTGATCGAAATTGGGAACAAATTAAGCCAGACGGAGTCACCTAGTGCAG | 21600 fluorescence intensity (a.u.) |
| ATAGATTTGATACTGAAATTGCTCCTATCTACCACGGCTTCGGAGTCACCTAGTGCAG | 22900 fluorescence intensity (a.u.) |
| ACTTATCACCAATTATATGAACTAAACATAGCCTTAGAGACGGAGTCACCTAGTGCAG | 3630 fluorescence intensity (a.u.) |
| TAATCTGTGATGATGGATTCTCGTTAAGCATATGTTCTTTCGGAGTCACCTAGTGCAG | 5830 fluorescence intensity (a.u.) |
| CTTTGACTAGTAGAATTGTAGTATGGATACGGATCGGGAGCGGAGTCACCTAGTGCAG | 3300 fluorescence intensity (a.u.) |
| TTTATAATTGGCTTGTTCGATGCAACTGTTTGAGCTGCATCGGAGTCACCTAGTGCAG | 27200 fluorescence intensity (a.u.) |
| AATACATTAATTATAATAATTACCGATATATGTTACGCCCCGGAGTCACCTAGTGCAG | 39500 fluorescence intensity (a.u.) |
| ATTTCTAATTAGCAATGCTAAGAGACCACTATTAACAAACCGGAGTCACCTAGTGCAG | 10400 fluorescence intensity (a.u.) |
| ACGGATTAACGGATTGGTAGCGGTACGAAATGGAATGTCTCGGAGTCACCTAGTGCAG | 6590 fluorescence intensity (a.u.) |
| GTTAGACTGACAGGTGGGGCCAGACCAAACCCCGTGTAAACGGAGTCACCTAGTGCAG | 17400 fluorescence intensity (a.u.) |
| TTTTATGAAATATTTATTTAATTACATAGGTGACATAGATCGGAGTCACCTAGTGCAG | 3930 fluorescence intensity (a.u.) |
| GGTATAGATGGACACAATTTGATGGCAATGGGGAGTTGAGCGGAGTCACCTAGTGCAG | 7370 fluorescence intensity (a.u.) |
| CTGTAAACTATAATTTACTCTGAGCATCTATACAAAAGGACGGAGTCACCTAGTGCAG | 9000 fluorescence intensity (a.u.) |
| TGTAAATTTGTGTTCAAACTTCAAACCCTTTCGAAATATCCGGAGTCACCTAGTGCAG | 5640 fluorescence intensity (a.u.) |
| GGTGTGGTGATTGAGTGGACTGAGGGGATGGAGGGATGAGCGGAGTCACCTAGTGCAG | 30300 fluorescence intensity (a.u.) |
| GTTTATAATAATTAAAACTTAATTAATCACATGTTATTACCGGAGTCACCTAGTGCAG | 22900 fluorescence intensity (a.u.) |
| CAGTAACAATCACTCATTCTCAGTATCTGCTACTCCTCTACGGAGTCACCTAGTGCAG | 3660 fluorescence intensity (a.u.) |
| GTTTGTTAATTATTCACTAATCTCTAGTACTATAGTTGTACGGAGTCACCTAGTGCAG | 17100 fluorescence intensity (a.u.) |

| Sequence | binding signal |
| --- | --- |
| GTACACTATAAATTTATATGTTTGCATACCATAGGGCAAACGGAGTCACCTAGTGCAG | 3200 fluorescence intensity (a.u.) |
| TGCTCTGAATGGATGCAATCAAGCAATAGCACCATACGTCCGGAGTCACCTAGTGCAG | 5360 fluorescence intensity (a.u.) |
| TGTGATTAGACCAGAAAGGGATTACAAAATTGGCCACTCCCGGAGTCACCTAGTGCAG | 42200 fluorescence intensity (a.u.) |
| GAACTTGGCCGATTTGTCAATTAATTTACAAATACAAACTCGGAGTCACCTAGTGCAG | 22300 fluorescence intensity (a.u.) |
| TGTTTTAATTTACGAGGGCCGTCGTGTTCAGGACTCGCAACGGAGTCACCTAGTGCAG | 6320 fluorescence intensity (a.u.) |
| CCCCTCCAAAATTTATGTAATTACCTCCCATCTCTCCATACGGAGTCACCTAGTGCAG | 9350 fluorescence intensity (a.u.) |
| GTGGGATTGGGATTGGAAAATAAATGAAGGGTTAGGATTACGGAGTCACCTAGTGCAG | 29700 fluorescence intensity (a.u.) |
| TTCTTGATGGAAATTGAAATTGTGTGTGTGGGATGCAGGACGGAGTCACCTAGTGCAG | 46400 fluorescence intensity (a.u.) |
| ACGGAGGAGTTAATTTTGATCTAATGCCTAATATATGTGGCGGAGTCACCTAGTGCAG | 3220 fluorescence intensity (a.u.) |
| TATACACATAACAAAATTAAATTAGACTACCCATTTCAATCGGAGTCACCTAGTGCAG | 3450 fluorescence intensity (a.u.) |
| TTATTAGATTGACTATAGATAAATTAGATAAATTGGAGTTCGGAGTCACCTAGTGCAG | 53600 fluorescence intensity (a.u.) |
| TTGTTTGACAGGTGATGTTGATTCAGAGTAGAGAACTGCACGGAGTCACCTAGTGCAG | 16500 fluorescence intensity (a.u.) |
| TATATATATATATATATATATATAATGTTTCATCACCTGTCGGAGTCACCTAGTGCAG | 30300 fluorescence intensity (a.u.) |
| CCAAATCAATCAGCCACCTCCAGTGCGTCGTTCTCTCGACCGGAGTCACCTAGTGCAG | 14500 fluorescence intensity (a.u.) |
| CAAATTACGCCCAAACAAATTGGCGAGAGCCGAGAAGAACCGGAGTCACCTAGTGCAG | 7970 fluorescence intensity (a.u.) |
| AATTTAATTTCGAATTAATAATTGTAAAATTATGTTTACCCGGAGTCACCTAGTGCAG | 41400 fluorescence intensity (a.u.) |
| GCCCAACGAGACTGAGAGTTAATTGGGCTGGGCCATATGCCGGAGTCACCTAGTGCAG | 10400 fluorescence intensity (a.u.) |
| CTCTAAATTAGTGTCTAAAGACATGGACTAAAGTTAAGTCCGGAGTCACCTAGTGCAG | 31500 fluorescence intensity (a.u.) |
| CCTGATGTACTAATGGGTTCCACCGTATATAAGATCCAATCGGAGTCACCTAGTGCAG | 5110 fluorescence intensity (a.u.) |
| AGTCAATTTGCACTCGTTATACCCTGGTTTTACGGTTGAACGGAGTCACCTAGTGCAG | 6480 fluorescence intensity (a.u.) |
| GCTATTTGACGATATGATGATAAGACATTGTTATACATCTCGGAGTCACCTAGTGCAG | 3380 fluorescence intensity (a.u.) |

From publication PMC7819943, “Rice protein-binding microarrays: a tool to detect cis-acting elements near promoter regions in rice”
